Experimental data published in publication PMC4336329 (PLoS ONE, 2015).
Screen size: about 310,000 compounds; about 2,200 (0.71%) showed an effect of 50% or more. The effect is printed as a negative number. Some of the results follow.

Biological target: human ether-à-go-go-related gene (hERG) potassium channel (human, UniProt Q12809)
Experiment: primary screen, population patch clamp on CHO cells stably expressing hERG

Chain of human ether-à-go-go-related gene (hERG) potassium channel (Q12809 whole entry, looked up): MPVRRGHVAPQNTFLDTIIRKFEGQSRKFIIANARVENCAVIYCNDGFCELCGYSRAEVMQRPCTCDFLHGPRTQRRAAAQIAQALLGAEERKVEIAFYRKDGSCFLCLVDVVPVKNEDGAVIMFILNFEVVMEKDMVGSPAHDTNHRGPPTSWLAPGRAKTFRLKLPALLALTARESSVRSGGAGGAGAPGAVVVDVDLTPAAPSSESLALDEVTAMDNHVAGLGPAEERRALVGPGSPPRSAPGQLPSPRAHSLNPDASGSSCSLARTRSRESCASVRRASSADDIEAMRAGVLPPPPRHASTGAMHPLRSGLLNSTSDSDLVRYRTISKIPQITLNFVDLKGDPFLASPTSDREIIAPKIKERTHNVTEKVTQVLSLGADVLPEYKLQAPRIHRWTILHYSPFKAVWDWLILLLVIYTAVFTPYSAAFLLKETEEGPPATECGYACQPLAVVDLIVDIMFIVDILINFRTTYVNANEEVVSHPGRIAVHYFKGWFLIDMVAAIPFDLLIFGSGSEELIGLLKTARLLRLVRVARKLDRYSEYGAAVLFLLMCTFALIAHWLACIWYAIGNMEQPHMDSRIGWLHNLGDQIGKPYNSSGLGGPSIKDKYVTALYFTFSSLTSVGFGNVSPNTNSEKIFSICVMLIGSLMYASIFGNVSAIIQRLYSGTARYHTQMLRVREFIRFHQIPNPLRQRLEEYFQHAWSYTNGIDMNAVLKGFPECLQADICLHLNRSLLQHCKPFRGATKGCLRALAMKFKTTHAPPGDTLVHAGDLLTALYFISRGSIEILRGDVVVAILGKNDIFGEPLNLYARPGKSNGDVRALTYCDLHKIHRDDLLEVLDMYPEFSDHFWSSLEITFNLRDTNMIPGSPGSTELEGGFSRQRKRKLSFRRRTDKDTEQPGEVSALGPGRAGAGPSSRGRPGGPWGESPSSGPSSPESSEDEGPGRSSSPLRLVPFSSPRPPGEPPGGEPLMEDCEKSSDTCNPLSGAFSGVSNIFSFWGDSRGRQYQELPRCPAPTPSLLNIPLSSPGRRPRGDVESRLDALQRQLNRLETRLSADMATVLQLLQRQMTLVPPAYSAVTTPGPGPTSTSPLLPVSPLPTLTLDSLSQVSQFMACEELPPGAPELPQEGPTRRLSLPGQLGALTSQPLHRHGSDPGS

Row | SMILES | hERG current change (%, negative = inhibition) at 1uM [%]
1 | O=C(CCNC(=O)C1CCN(S(=O)(=O)c2ccc(F)cc2)CC1)Nc1nccs1 | 12.7
2 | CCOc1ccc(NC(=O)CCC(=O)NNC(=O)Nc2cccc(Cl)c2)cc1 | 13.6
3 | Cc1ccc(S(=O)(=O)NC(C(=O)N2CCOCCOCCOCCOCC2)C(C)C)cc1 (stereo not shown) | 15
4 | Cc1c(/C=N/NC(=O)CNc2ccccc2)c2ccccn2c1C(=O)c1ccc(Cl)cc1 | 10.7
5 | CCn1cc(C(=O)NCCCN(CC(C)C)CC(C)C)c(=O)c2cc(S(=O)(=O)N3CCOCC3)ccc21 | 3.6
6 | O=c1[nH]c2ccc(NC(=S)Nc3ccccc3Cl)cc2[nH]1 | 6.47
7 | CC(C)(C)NC(=O)NC(=O)CN1CCC(Cc2ccccc2)CC1 | 3.83
8 | O=C(c1ccc(N2CC3CC(C2)c2cccc(=O)n2C3)c([N+](=O)[O-])c1)N1CCCC1 (stereo not shown) | 5.65
9 | CCCCNC(=O)CCCCn1c(=S)[nH]c2c([nH]c3ccc(OC)cc32)c1=O | 14.4
10 | CCN(CC)c1ccc(NC(=S)NC(=O)C2CCC2)cc1 | 8.39
11 | COc1ccc(C(=O)Nc2ccc3c(c2)nc(CCNC(C)=O)n3C)cc1 | 20
12 | S=C(NC12CC3CC(CC(C3)C1)C2)N1CCOCC1 | 10.4
13 | CCC(=O)Nc1c(C(=O)Nc2cccc(OC)c2)oc2ccccc12 | 10.1
14 | CCOC(=O)c1c(C)[nH]c(C)c1C(=O)CSc1nnnn1-c1ccccc1 | -1.78
15 | COc1ccc(CCNc2cc(N3CCN(C(=O)c4ccc(C)cc4)CC3)ccc2[N+](=O)[O-])cc1OC | 8.69
16 | CCCn1c(SC(C(=O)Nc2cc(C)ccc2OC)c2ccccc2)nc2ccccc2c1=O (stereo not shown) | 8.42
17 | Cc1sc(NC(=O)CSc2nnc(CCNC(=O)c3cccs3)n2C)nc1-c1ccccc1 | -27.7
18 | COc1ccc(S(N)(=O)=O)cc1C(=O)N(C)CC(=O)Nc1ccc(N2CCOCC2)cc1 | 7.76
19 | COc1ccccc1-n1c(SCC(=O)O)nc2c(sc(=S)n2-c2ccccc2C)c1=O | 15.7
20 | O=C(NCCCN1CCOCC1)c1ccc(/C=C2\Oc3ccccc3N(Cc3ccccc3F)C2=O)cc1 | 12.5
21 | COc1ccc(S(=O)(=O)N2CCCC(C(=O)NCCN3CCOCC3)C2)cc1C (stereo not shown) | 11.5
22 | Cc1c(CC(=O)NC(C)C)c(=O)oc2cc3c(cc12)CCC(C)(C)O3 | 22.4

Row | SMILES | hERG current change (%, negative = inhibition) at 1uM [%]
23 | COc1cccc(CC(=O)Nc2nc(-c3cccnc3)cs2)c1 | 2.65
24 | Cl.NC(=O)C1CCN(Cc2nnnn2Cc2ccco2)CC1 | 15.4
25 | CN(CCc1ccccn1)C(=O)CCC1CCCN(C(=O)CCOc2ccccc2)C1 (stereo not shown) | 3.56
26 | COc1ccc2ccccc2c1-c1sc(Nc2ccccc2)n[n+]1-c1ccc(F)cc1.[Cl-] | 4.91
27 | COc1cc(/C=C/c2noc(-c3ccccc3O)n2)cc(OC)c1OC | 13.2
28 | Cc1ccc(Cl)cc1NC(=O)CC(O)(C(F)(F)F)C(F)(F)F | -1.37
29 | COC(=O)c1c(C(=O)OC)c(-c2ccc(F)cc2)n2c1CS(=O)(=O)C2 | 6.83
30 | CC(OC(=O)c1ccc(Cl)c(S(=O)(=O)N2CCc3ccccc32)c1)C(=O)Nc1ncc(Cl)cc1Cl (stereo not shown) | -0.55
31 | Cc1ccc(S(=O)(=O)NCCCC(=O)N2CCC(C)CC2)cc1 | 11.6
32 | O=C(O)C(=O)O.OCCN(Cc1ccccc1)Cc1ccccc1O | 10.7
33 | CC(C)(Oc1ccc(CCNC(=O)c2ccc(-c3ccc(Cl)cc3)o2)cc1)C(=O)O | 14
34 | Cc1ccc(NC(=O)CCC(=O)N/N=C/c2coc3ccc(F)cc3c2=O)cc1 | 6.01
35 | COc1ccc(NC(=O)c2ccccc2SC)cc1OC | -1.65
36 | CCOC(=O)N1CCN(C(=O)c2c(-c3ccccc3Cl)noc2C)CC1 | 10.4
37 | COC(=O)c1cc(C(=O)OC)cc(-n2c(C)cc(C(=O)COC(=O)CNS(=O)(=O)c3ccc(C)cc3)c2C)c1 | 4.44
38 | COc1cc(/C=C(/C#N)C(=O)Nc2ccccc2)ccc1OCc1ccc(C(=O)O)cc1 | 7.51
39 | O=C(COC(=O)C1CCC(N2C(=O)C3C4CCC(C4)C3C2=O)CC1)c1ccc(F)cc1 (stereo not shown) | 5.18
40 | O=C(NCc1ccc2c(c1)OCO2)c1ccc(COc2cc(Cl)ccc2Cl)o1 | 15.7
41 | CCNC(=O)c1c(C)nc2ccccn12 | -5.23
42 | COC(=O)c1ccccc1OCC(=O)N1CCN(c2ccc(Cl)cc2)CC1 | -6.4
43 | COc1ccccc1CNC(=O)COC(=O)c1ccc([N+](=O)[O-])o1 | 8.33
44 | COC(=O)/C=C1/S/C(=N/NC(=O)c2ccccc2C)NC1=O | 9.87

Row | SMILES | hERG current change (%, negative = inhibition) at 1uM [%]
45 | N#CCCN(C(=O)COC(=O)CCc1c[nH]c2ccccc12)c1ccc(F)cc1 | 4.81
46 | CN1CCN(S(=O)(=O)c2cccc(C(=O)NCc3ccc(Cl)cc3)c2)CC1 | 5.17
47 | O=C(Nc1ccc2[nH]c(=O)[nH]c2c1)c1c(F)c(F)c(F)c(F)c1F | 14.1
48 | CCCC(=O)NC(=S)Nc1ccc(Cl)cn1 | 11.2
49 | Cc1nonc1NC(=O)CSc1nc(C23CC4CC(CC(C4)C2)C3)nc2ccccc12 | 14.9
50 | O=C(NCC1(c2ccccc2)CCCC1)c1ccccc1Br | 6.88
51 | COc1ccc(CCNC(=O)C2CCN(S(=O)(=O)N3CCCCCC3)CC2)cc1OC | -0.0748
52 | COc1ccc(CN2C[C@H](Cc3ccccc3)[C@@H](CC(=O)Nc3ccccc3)C2=O)cc1 | 6.62
53 | CCCC1(C(=O)O)NC(c2ccccc2O)C2C(=O)N(Cc3ccccc3)C(=O)C21 (stereo not shown) | 3.09
54 | Cc1ccnc(NS(=O)(=O)c2ccc(NC(=O)CN3C(=O)c4ccccc4S3(=O)=O)cc2)n1 | 4.28
55 | N#Cc1ccccc1S(=O)(=O)N1CCN(C(=O)CCc2ccccc2)CC1 | -4.28
56 | COC(=O)c1nnn(CC(=O)Nc2cccc(Cl)c2)c1C(=O)OC | 5.31
57 | COc1ccc(/C=C(\C#N)C(=O)NC2CCS(=O)(=O)C2)cc1OC (stereo not shown) | 18.5
58 | COC(=O)c1cc(/C=C/c2ccccc2)on1 | 11.5
59 | COc1cc(C(=O)Nc2ccc3c(c2)OCCO3)c(-n2cnnn2)cc1OC | -0.364
60 | COc1cccc(/C=C/C(=O)NCc2cn3cc(Cl)ccc3n2)c1 | 8.22
61 | COc1ccc(N2CCN(Cc3nc4c(c(=O)n(C)c(=O)n4C)n3Cc3cccc(C)c3)CC2)cc1 | 5.12
62 | Cc1cccc(Nc2nc(N)nc(CN3CCN(c4ccc(F)cc4)CC3)n2)c1 | -34.7
63 | CCOCCN1CCN(C2c3ccccc3CSc3ccccc32)CC1.O=C(O)C(=O)O (stereo not shown) | 4.02
64 | CCCCn1c(N)c(N(CCOC)C(=O)CN(C)S(=O)(=O)c2ccc(F)cc2)c(=O)[nH]c1=O | 2.86
65 | CSc1ccccc1OC1CCN(Cc2ccccc2)CC1.Cl | -3.71
66 | C/C(=N\Nc1nccnc1Cl)c1ccc(O)c(C)c1 | 13

Row | SMILES | hERG current change (%, negative = inhibition) at 1uM [%]
67 | CC(/C=N/NC(=O)CSc1ccccn1)=C\c1ccc(C(C)C)cc1 | -1.33
68 | CCOC(=O)CC1=NN(c2ccccc2)C(=O)/C1=C\c1ccc(N(C)C)cc1 | 13.3
69 | O=C1CSC(c2ccccc2O)N1Cc1ccccc1 (stereo not shown) | 9.42
70 | Cc1ccc(C(=O)n2cnnc2N)cc1C | 4.37
71 | O=C(CCN1C(=O)S/C(=C/c2ccccc2)C1=O)Nc1ccc(C(=O)O)c(O)c1 | 19.5
72 | c1ccc(Oc2cc(-c3ccccc3)ncn2)cc1 | -0.547
73 | O=C(c1ccc(Cl)cc1)C1CCCN(Cc2ccc3nonc3c2)C1 (stereo not shown) | 0.831
74 | Cc1ccccc1NC(=O)c1c(C)nn(-c2ccccc2)c1Cl | -0.531
75 | O=C(O)c1cc(S(=O)(=O)N2CCCCC2)ccc1Cl | 1.04
76 | Cc1csc2c(=O)n(CCO)c(=O)[nH]c12 | 9.48
77 | CC(C)(CNS(C)(=O)=O)SCc1ccc(Cl)cc1 | 7.7
78 | COc1ccc(N2CCN(C(=O)CCC(=O)N3Cc4ccccc4Oc4ncccc43)CC2)cc1 | 0.308
79 | Cc1ccccc1Nc1nc(Cl)c(C=O)s1 | 7.79
80 | Cc1ccc2cc(CN(CC3CCCO3)C(=S)Nc3ccccc3)c(=O)[nH]c2c1 (stereo not shown) | 6.84
81 | CCOC(=O)CC(=O)Nc1nnc(CC(C)C)s1 | 6.93
82 | Cc1ccccc1CNC(=O)C1CCN(c2nnc(N3CCCC3=O)s2)CC1 | 14.6
83 | Cc1cc(C(=O)c2ccccc2)c(NC(=O)CCl)s1 | 15.2
84 | Cc1cccc(-c2noc(CN(C(=O)C(c3ccccc3)c3ccccc3)C(C)C)n2)c1 | 2.52
85 | CCOc1cc(S(=O)(=O)N2CCN(Cc3ccccc3)CC2)ccc1Br | 6.73
